Assay results reported in PubChem BioAssay AID686979 (National Center for Advancing Translational Sciences (NCATS), 2013).
“And” between values parts separate entries of the source, which are not always exact repeats. Equal values may be shown once. The campaign covered roughly 420,000 compounds. About 50,000 (12%) were called active. The inconclusive results got no clear call from the source; some entries with a clear call stand among them for comparison. Calls follow the shape of the dose curve; as a rule, active = well fitted inhibition curve with a large enough effect; inconclusive = small, poorly fitted or top-dose-only effect; inactive = flat fitted curve, though single readings scatter. Where the call is inconclusive, the potency comes from a doubtful curve fit.

experiment: qHTS for Inhibitors of human tyrosyl-DNA phosphodiesterase 1 (TDP1): qHTS in cells in presence of CPT; conditions: chicken DT40 Tdp1-/-;hTDP1 cells + 20 nM CPT, ATP luminescence, 48 h; activity change, negative = growth inhibition: at 46.2 µM (top of the series) unless noted; also: nearly all actives have a fitted effect of over 55% in size
Outline: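 Chicken DT40 Tdp1-/- cells stably complemented with human TDP1 were seeded at 400 cells/well in medium containing 20 nM camptothecin, exposed to pin-transferred compounds, and grown at 37 °C for at least 48 hr. Viability was read as ATP luminescence.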
% is scaled to controls: 0 for no effect and ±100 for the full control effect; potency is read from the fitted curve at half-maximal effect; tags tell the direction and shape of the fitted curve.

| SMILES | Potency | activity change, negative = growth inhibition |
| --- | --- | --- |
| COc1ccc(OC)c(NC(=O)C(C)OC(=O)c2cc3ccccc3[nH]2)c1 (centres undefined) | inconclusive: 23.1 µM [inhibitor, single point] | – |
| Cc1ccc(CN2[C@@H](CC3CCCCC3)COCCS2(=O)=O)cc1 | inconclusive: 25.1 µM [inhibitor, single point] and inconclusive: 29.1 µM [inhibitor, single point] | – |
| O=C(CNS(=O)(=O)c1ccc(F)cc1)N1CCOCC1 | inactive | – |
| C=C(C)Cn1c(SCCCO)nc2c1c(=O)[nH]c(=O)n2C | inactive | – |
| O=C(c1ccc2c(=O)n(-c3ccccc3)c(=S)[nH]c2c1)N1CCN(c2ccccc2)CC1 | active: 14.6 µM | – |
| c1ccc(COc2ccccc2CNc2nn[nH]n2)cc1 | inactive | – |
| COc1ccc2c(c1)c(C(=O)CNc1nc(C)cs1)c(C)n2C | inconclusive: 29.1 µM [inhibitor, single point] | – |
| COc1cccc(OCc2cc(C(=O)N(C)CCC3CCCCO3)no2)c1 (centres undefined) | inactive | – |
| Cc1ccccc1Nc1c(-c2cccc(Cl)c2)nc2ncccn12 | inconclusive: 18.4 µM [inhibitor, partial curve] | – |
| CC(C)(C)c1nnc2sc(SCC(=O)N3CCc4ccccc43)nn2c1=O | inconclusive: 29.1 µM [inhibitor, single point] | – |
| CCN(CC)S(=O)(=O)c1ccc2c(c1)N(CC(=O)N1CCN(c3ccc(OC)cc3)CC1)C(=O)CO2 | active: 20.6 µM | – |
| Cc1ccc(S(=O)(=O)N2C[C@@H](C)[C@]3(C2)[C@H](O)[C@H](OC(=O)NCc2ccccc2F)C[C@H]2C(=O)N(c4ccccc4)C(=O)[C@H]23)cc1 | inconclusive: 29.1 µM [inhibitor, single point] | – |
| COc1ccc(NC(=O)CSc2ncc(-c3ccc(F)cc3)n2Cc2ccco2)cc1 | active: 12.6 µM | – |
| CC(=O)CCSc1ncnc2sc(-c3ccccc3)cc12 | inconclusive: 32.6 µM [inhibitor, single point] | – |
| CCOC(=O)c1c(C)n(C)c2ccc(OCC(O)CN3CCCCCC3)cc12 (centres undefined) | inconclusive: 29.1 µM [inhibitor, single point] | – |
| Cc1ccc(-c2onc(C)c2C)cc1S(=O)(=O)N1CCOc2ccc(Cl)cc21 | inconclusive: 23.1 µM [inhibitor, single point] | – |
| CC(C)n1c(CCC(=O)O)ccc1-c1ccccc1 | inactive | – |
| CCOC(=O)c1ccccc1NC(=O)[C@@H]1CCCN1C(=O)OC(C)(C)C | inconclusive: 29.1 µM [inhibitor, single point] | – |
| Cc1cccc(C(=O)NCC(=O)N2CC(=O)Nc3ccccc32)c1 | inactive | – |
| COc1cccc(COCC(O)Cn2cnc3cc(C)c(C)cc32)c1 (centres undefined) | inconclusive: 16.4 µM [inhibitor, single point] | – |
| CN(c1nc2ccccc2n2c(C3CC3)nnc12)S(=O)(=O)c1ccccc1 | inactive | – |
| O=C(CN1CCOCC1)NCc1cc([N+](=O)[O-])ccc1O | inactive | – |

| SMILES | Potency | activity change, negative = growth inhibition |
| --- | --- | --- |
| COc1cc(CC(=O)Nc2cccc(SC)c2)cc(OC)c1OC | inconclusive: 5.8 µM [inhibitor, single point] | – |
| COc1cc(/C=C(\C#N)c2nc3ccccc3[nH]2)ccc1OCc1ccccc1F | – | inconclusive: -30.3% [inhibitor] |
| CC(=O)NC(Cc1cc(C)ccc1C)C(=O)N1CCN(C(=O)c2ccccc2Br)CC1 (centres undefined) | inconclusive: 16.4 µM [inhibitor, partial curve] | – |
| C=CCNC(=O)/C(C#N)=C/c1cc(Br)ccc1OC | inconclusive: 29.1 µM [inhibitor, single point] | – |
| Cc1ccc(C(=O)c2oc3ccc(Cl)cc3c2NC(=O)CN2CCN(C)CC2)cc1 | inconclusive: 29.1 µM [inhibitor, single point] | – |
| O=C(CN1CCN(Cc2ccccc2Cl)C1=O)NC1CCCCCCC1 | inconclusive: 18.4 µM [inhibitor, single point] | – |
| CS(=O)(=O)Nc1cccc(NC(=O)C2Cc3c(-c4ccco4)ccnc3O2)c1 (centres undefined) | inconclusive: 23.1 µM [inhibitor, single point] | – |
| CC(C)(C)NC(=O)c1ccc2nsnc2c1 | inactive | – |
| Cc1nn(-c2ccccc2)c(C)c1/C=N/N1CCN(c2ccccc2)CC1 | inconclusive: 16.4 µM [inhibitor, partial curve] | – |
| COC(=O)CC1N(S(=O)(=O)c2ccc(C)cc2)c2ccccc2C1(C(=O)OC)C(=O)OC (centres undefined) | active: 25.9 µM | – |
| CC(=O)N1CCc2c(sc3c2c(=O)n(Cc2ccccc2)c(=O)n3Cc2ccccc2F)C1 | active: 20.6 µM | – |
| OC1(c2cccs2)CN(c2ccc(Br)cc2)C2=[N+]1CCCS2 (centres undefined) | inconclusive: 29.1 µM [inhibitor, single point] | – |
| Cc1ccc(OCc2nnc(SCc3nc4ccccc4[nH]3)n2Cc2ccco2)cc1 | active: 14.6 µM | – |
| COc1cccc(CN(C)C(=O)C(CCSC)NS(=O)(=O)c2ccc3c(c2)OCCO3)c1OC (centres undefined) | active: 16.4 µM | – |
| C[C@H]1[C@H](C)CC[C@]2(C(=O)O)CC[C@]3(C)C(=CC[C@@H]4[C@@]5(C)C[C@@H](O)[C@H](O)C(C)(C)[C@@H]5CC[C@]43C)[C@H]12 | inconclusive: 16.4 µM [inhibitor, single point] | – |
| CCC(Sc1nc(-c2ccc(F)cc2)nc2c1Cc1c(CO)cnc(C)c1O2)C(=O)Nc1ccc(F)cc1 (centres undefined) | inactive | – |
| Cc1onc(-c2ccccc2)c1C(=O)Nc1cccc(S(=O)(=O)N2CCCCC2)c1 | inconclusive: 29.1 µM [inhibitor, single point] | – |
| CCc1nc2c(OCc3ccccc3)cccn2c1N(C)C(=O)c1ccc2c(c1)OCO2 | inconclusive: 18.4 µM [inhibitor, single point] | – |
| COc1c(Cl)cc(C(=O)N(Cc2ccccc2F)C2CCS(=O)(=O)C2)cc1Cl (centres undefined) | inconclusive: 29.1 µM [inhibitor, single point] | – |
| CC(=O)c1ccc(OCC(O)CNCc2ccc3c(c2)OCO3)cc1 (centres undefined) | inactive | – |
| Cc1cc(C(=O)c2ccc(Cl)cc2)c(NC(=O)CCl)s1 | active: 8.2 µM | – |
| CC1Cc2nc(SCC(=O)Nc3ccccc3F)n(C)c(=O)c2S1 (centres undefined) | inconclusive: 29.1 µM [inhibitor, single point] | – |
